Results as given in US9163227B2, “Anti-diabetic compounds” (PFIZER INC., priority 2011, dated 2015).
Where “and” joins values, the source holds several entries; their conditions need not be identical. Identical values can stand only once. Like-named read-outs stand apart in the source and are kept apart here. Marks after values point to notes of the source that are not given here. Values belong to the molecule of their own block, whether it stands above or below them.

Key:
[1] = Body weight and liver weight in ob/ob mice; type: in vivo; conditions: for Cumulative body weight change, mean body weight: FIG. 6A, single dose 10 mg/kg
Procedure: (§1) The efficacy of FGF21 antibodies conjugates was evaluated in two murine obese insulin resistant models—ob/ob mice and high-fat diet-induced obese mice. For both models, male mice (6-8 weeks of age for ob/ob, 12-14 weeks of age for DIO with high-fat diet initiated at 6 weeks of age) were housed 2-4/cage and FGF21 antibody conjugates were administered by SC injection. Body weight was measured daily in the morning. Glucose tolerance was assessed by oral glucose tolerance test. Briefly, mice were fasted for 4-5 hrs in the morning of the day of testing. A basal blood sample was obtained and blood glucose levels were determined using a portable glucometer.

ob/ob mice = assay: Oral glucose tolerance test in ob/ob mice (FGF21 conjugates); type: in vivo; conditions: for mean glucose AUC % during OGTT: FIG. 6B; for Mean Glucose AUC (% of vehicle control) during OGTT: FIGS. 4A/4B
Procedure: as §1

[2] = target: Glut1 mRNA expression in differentiated 3T3-L1 adipocytes (Mus musculus, UniProt P16092+Q99N32); assay: Glut1 Taqman assay; type: cell-based; conditions: for EC50: 6 hrs
Sequence of Glut1 mRNA expression in differentiated 3T3-L1 adipocytes (P16092 22-822): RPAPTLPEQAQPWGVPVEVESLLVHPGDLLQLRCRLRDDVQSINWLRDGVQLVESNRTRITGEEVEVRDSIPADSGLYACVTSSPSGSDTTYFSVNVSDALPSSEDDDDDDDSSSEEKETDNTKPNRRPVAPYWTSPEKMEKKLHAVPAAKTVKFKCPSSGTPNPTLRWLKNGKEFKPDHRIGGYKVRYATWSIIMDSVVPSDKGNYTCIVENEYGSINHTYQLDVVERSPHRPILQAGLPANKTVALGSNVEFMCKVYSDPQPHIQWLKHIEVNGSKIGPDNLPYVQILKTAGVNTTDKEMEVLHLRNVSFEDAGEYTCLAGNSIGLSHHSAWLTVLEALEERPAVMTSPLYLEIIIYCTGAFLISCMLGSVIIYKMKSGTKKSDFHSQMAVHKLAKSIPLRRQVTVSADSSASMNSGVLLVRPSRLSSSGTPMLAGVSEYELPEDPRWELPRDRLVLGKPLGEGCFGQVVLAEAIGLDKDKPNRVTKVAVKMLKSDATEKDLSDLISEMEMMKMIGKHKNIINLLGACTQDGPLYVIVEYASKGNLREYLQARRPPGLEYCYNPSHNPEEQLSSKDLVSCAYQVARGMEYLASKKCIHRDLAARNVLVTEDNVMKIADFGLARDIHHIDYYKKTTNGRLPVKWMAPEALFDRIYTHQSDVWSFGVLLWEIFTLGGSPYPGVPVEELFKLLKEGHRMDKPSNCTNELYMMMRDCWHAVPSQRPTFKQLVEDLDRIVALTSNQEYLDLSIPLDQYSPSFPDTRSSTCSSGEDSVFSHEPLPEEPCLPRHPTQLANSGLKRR
Sequence of Glut1 mRNA expression in differentiated 3T3-L1 adipocytes (Q99N32 whole entry): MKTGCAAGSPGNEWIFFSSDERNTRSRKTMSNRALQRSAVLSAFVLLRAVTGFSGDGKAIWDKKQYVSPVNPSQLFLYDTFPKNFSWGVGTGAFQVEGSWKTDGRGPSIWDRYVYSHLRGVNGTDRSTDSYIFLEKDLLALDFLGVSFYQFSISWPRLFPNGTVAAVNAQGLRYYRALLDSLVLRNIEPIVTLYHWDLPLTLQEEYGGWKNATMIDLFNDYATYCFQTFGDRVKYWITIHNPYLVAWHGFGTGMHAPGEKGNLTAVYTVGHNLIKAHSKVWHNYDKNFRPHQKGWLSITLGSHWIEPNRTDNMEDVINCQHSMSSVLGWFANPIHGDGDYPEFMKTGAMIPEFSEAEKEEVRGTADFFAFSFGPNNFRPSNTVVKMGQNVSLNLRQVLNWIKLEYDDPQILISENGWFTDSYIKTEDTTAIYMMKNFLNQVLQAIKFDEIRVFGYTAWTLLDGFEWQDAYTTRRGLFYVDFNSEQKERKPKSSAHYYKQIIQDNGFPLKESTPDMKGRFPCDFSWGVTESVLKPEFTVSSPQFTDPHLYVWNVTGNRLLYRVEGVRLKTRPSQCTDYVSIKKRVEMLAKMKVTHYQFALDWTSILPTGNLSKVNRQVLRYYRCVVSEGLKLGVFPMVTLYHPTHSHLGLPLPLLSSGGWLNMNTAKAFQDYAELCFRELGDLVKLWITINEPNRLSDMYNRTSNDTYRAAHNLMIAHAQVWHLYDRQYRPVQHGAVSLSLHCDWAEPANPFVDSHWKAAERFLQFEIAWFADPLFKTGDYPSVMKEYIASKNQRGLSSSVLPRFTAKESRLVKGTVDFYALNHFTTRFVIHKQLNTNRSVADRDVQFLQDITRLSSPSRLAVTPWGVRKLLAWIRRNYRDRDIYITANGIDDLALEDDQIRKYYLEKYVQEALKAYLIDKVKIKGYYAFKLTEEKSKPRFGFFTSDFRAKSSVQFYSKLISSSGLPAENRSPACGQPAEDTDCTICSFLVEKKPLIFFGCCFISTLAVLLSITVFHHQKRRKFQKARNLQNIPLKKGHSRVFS
Procedure: Differentiated 3T3-L1 adipocytes were used to measure the Glut1 mRNA expression by qPCR method. Overnight serum starved day 10-14 differentiated 3T3-L1 adipocytes were treated with compounds for 6 hrs. Total RNA was extracted from these cells, and Glut1 and GAPDH mRNA expression was measured using a Quantitect Probe RT-PCR kit and running a quantitative real time PCR reaction in a Taqman machine (Applied Biosystems®). The bioactivity of the compounds was determined by a fold change in Glut1 mRNA levels normalized by the GAPDH mRNA levels from each sample. EC═values as measurements of the potency of the compounds were obtained from the dose response curves in the assay.
3T3-L1 adipocytes were seeded at day 8 in 24-well tissue culture plates (Falcon®, Cat#353047), and incubated in DMEM complete medium (10% FBS, 2 mM L-glutamine, 1% P/S) at 37° C., 5% CO2. […] The medium was aspirated, and then RNA extracted from the cells using the RNeasy mini Kit according to the manufacturer's instructions. RNA was measured at A260 nm using the Spectramax® Plus spectrophotometer.
In Glut1 Taqman assay, differentiated 3T3-L1 adipocytes were used to measure the Glut1 mRNA expression by real-time quantitative PCR (qPCR) method described below. Overnight serum starved day 10-14 differentiated 3T3-L1 adipocytes were treated with compounds for 6 hrs. Total RNA was extracted from these cells, and Glut1 and GAPDH mRNA expression was measured using a Quantitect Probe RT-PCR kit and running a real time quantitative PCR reaction in a Taqman machine. The bioactivity of the compounds was determined by a fold change in Glut1 mRNA levels normalized by the GAPDH mRNA levels from each sample. In cAMP assay, Chinese hamster ovary (CHO) cells over-expressing human GLP-1R(CHO-hGLP-1R) were seeded in 96-well plates in serum-free medium with 300 uM IBMX. Cells were incubated with compounds at RT for 1 hr. The cAMP levels were measured using a CisBio cAMP Kit according to manufacturer's instructions. The bioactivity of the compounds was determined by the EC50 values obtained from the assay (see Table 42).

[3] = Mouse pharmacokinetics of FGF21 antibody conjugates; type: in vivo, Swiss-Webster mice; conditions: for IV half-life / SC bioavailability / SC half-life: mice
Procedure: The PK of FGF21 antibody conjugates were examined in mice after IV or SC administration. […] Antibody conjugates concentrations in serum were determined using an ELISA which captured the FGF21 portion of the antibody conjugates through a monoclonal anti-hFGF21 antibody bound to a 96-well plate. FGF21 antibody conjugates bound to the plate were detected through an anti-hFc monoclonal antibody, and concentrations were determined using a standard curve of the PK dosing solution diluted into serum-containing assay buffer. SC bioavailability was calculated as the ratio of the area-under the curve (AUC) of the SC serum concentration profile divided by the AUC of the IV serum concentration profile.

[4] = differentiated 3T3-L1 adipocytes, protein or antibody conjugate as labelled, read-out: Glut1 Taqman assay EC50
[5] = mouse, IV administration at 3 mg/kg (FIG. 3B)

EC50 [2, 4]: 3.2 nM
B1: Ab-L1-FGF21ΔH-H125C: SEQ ID NO:7 combined with L1 at H125C and conjugated with h38C2 (conjugate)
light: ELQMTQSPSSLSASVGDRVTITCRSSQSLLHTYGSPYLNWYLQKPGQSPKLLIYKVSNRFSGVPSRFSGSGSGTDFTLTISSLQPEDFAVYFCSQGTHLPYTFGGGTKVEIKRTVAAPSVFIFPPSDEQLKSGTASVVCLLNNFYPREAKVQWKVDNALQSGNSQESVTEQDSKDSTYSLSSTLTLSKADYEKHKVYACEVTHQGLSSPVTKSFNRGEC
heavy: EVQLVESGGGLVQPGGSLRLSCAASGFTFSNYWMSWVRQSPEKGLEWVSEIRLRSDNYATHYAESVKGRFTISRDNSKNTLYLQMNSLRAEDTGIYYCKTYFYSFSYWGQGTLVTVSSASTKGPSVFPLAPSSKSTSGGTAALGCLVKDYFPEPVTVSWNSGALTSGVHTFPAVLQSSGLYSLSSVVTVPSSSLGTQTYICNVNHKPSNTKVDKRV[skipping human IgG1 Fc]
chain: PIPDSSPLLQFGGQVRQRYLYTDDAQQTEAHLEIREDGTVGGAADQSPESLLQLKALKPGVIQILGVKTSRFLCQRPDGALYGSLHFDPEACSFRELLLEDGYNVYQSEAHGLPLHLPGNKSPCRDPAPRGPARFLPLPGLPPALPEPPGILAPQPPDVGSSDPLSMVGPSQGRSPSYAS
body weight gain in ob/ob mice (in words) [1]: reduce body weight gain
Cumulative body weight change, mean body weight [1]: 0.8 g
glucose tolerance in ob/ob mice (in words) (ob/ob mice): improve glucose tolerance
mean glucose AUC % during OGTT (ob/ob mice; single dose 10 mg/ml (so in the source)): 51%
Mean Glucose AUC (% of vehicle control) during OGTT (ob/ob mice; single SC dose 1 mg/kg): 87 % of vehicle control
Mean Glucose AUC (% of vehicle control) during OGTT (ob/ob mice; single SC dose 3 mg/kg): 66 % of vehicle control
IV half-life [3]: 37 h
SC bioavailability [3]: 67%
SC half-life [3]: 32 h

activity in Glut1 Taqman assay (in words) ([2]; 3T3-L1 adipocytes): dose-dependent Glut1 induction
EC50 ([2]; 3T3-L1 adipocytes, serum-free DMEM 0.2% BSA, Taqman quantitative real-time PCR, read-out: Glut1 RNA expression EC50): 1.72 nM
EC50 [2, 4]: 2.7 nM
B2: Ab-L1-FGF21ΔH-A129C: h38C2 (SEQ ID NO:25 and 26), each arm linked through K99 to L1, each L1 conjugated to Cys129 of SEQ ID NO:10 (conjugate, listed as Homo sapiens)
heavy: ELQMTQSPSSLSASVGDRVTITCRSSQSLLHTYGSPYLNWYLQKPGQSPKLLIYKVSNRFSGVPSRFSGSGSGTDFTLTISSLQPEDFAVYFCSQGTHLPYTFGGGTKVEIKRTVAAPSVFIFPPSDEQLKSGTASVVCLLNNFYPREAKVQWKVDNALQSGNSQESVTEQDSKDSTYSLSSTLTLSKADYEKHKVYACEVTHQGLSSPVTKSFNRGEC
light: EVQLVESGGGLVQPGGSLRLSCAASGFTFSNYWMSWVRQSPEKGLEWVSEIRLRSDNYATHYAESVKGRFTISRDNSKNTLYLQMNSLRAEDTGIYYCKTYFYSFSYWGQGTLVTVSSASTKGPSVFPLCPSSKSTSGGTAALGCLVKDYFPEPVTVSWNSGALTSGVHTFPAVLQSSGLYSLSSVVTVPSSSLGTQTYICNVNHKPSNTKVDKRV[skipping human IgG1 Fc]
chain: PIPDSSPLLQFGGQVRQRYLYTDDAQQTEAHLEIREDGTVGGAADQSPESLLQLKALKPGVIQILGVKTSRFLCQRPDGALYGSLHFDPEACSFRELLLEDGYNVYQSEAHGLPLHLPGNKSPHRDPCPRGPARFLPLPGLPPALPEPPGILAPQPPDVGSSDPLSMVGPSQGRSPSYAS
modifications: L1 linker via K99 to Cys129

EC50 [2, 4]: 3.7 nM
B3: Ab-L1-FGF21ΔH-D79C: SEQ ID NO:12 combined with L1 at D79C and conjugated with h38C2 (conjugate)
light: ELQMTQSPSSLSASVGDRVTITCRSSQSLLHTYGSPYLNWYLQKPGQSPKLLIYKVSNRFSGVPSRFSGSGSGTDFTLTISSLQPEDFAVYFCSQGTHLPYTFGGGTKVEIKRTVAAPSVFIFPPSDEQLKSGTASVVCLLNNFYPREAKVQWKVDNALQSGNSQESVTEQDSKDSTYSLSSTLTLSKADYEKHKVYACEVTHQGLSSPVTKSFNRGEC
heavy: EVQLVESGGGLVQPGGSLRLSCAASGFTFSNYWMSWVRQSPEKGLEWVSEIRLRSDNYATHYAESVKGRFTISRDNSKNTLYLQMNSLRAEDTGIYYCKTYFYSFSYWGQGTLVTVSSASTKGPSVFPLAPSSKSTSGGTAALGCLVKDYFPEPVTVSWNSGALTSGVHTFPAVLQSSGLYSLSSVVTVPSSSLGTQTYICNVNHKPSNTKVDKRV[skipping human IgG1 Fc]
chain: PIPDSSPLLQFGGQVRQRYLYTDDAQQTEAHLEIREDGTVGGAADQSPESLLQLKALKPGVIQILGVKTSRFLCQRPCGALYGSLHFDPEACSFRELLLEDGYNVYQSEAHGLPLHLPGNKSPHRDPAPRGPARFLPLPGLPPALPEPPGILAPQPPDVGSSDPLSMVGPSQGRSPSYAS
body weight gain in ob/ob mice (in words) [1]: reduce body weight gain
Cumulative body weight change, mean body weight [1]: 1.4 g
glucose tolerance in ob/ob mice (in words) (ob/ob mice): improve glucose tolerance
mean glucose AUC % during OGTT (ob/ob mice; single dose 2 mg/kg): 86%
Mean Glucose AUC (% of vehicle control) (ob/ob mice; OGTT on day 6, SC 10 mg/kg on day 0 & 3): 53** % of vehicle control
Mean Glucose AUC (% of vehicle control) (ob/ob mice; OGTT on day 6, SC 10 mg/kg on day 3): 53** % of vehicle control
Mean Glucose AUC (% of vehicle control) (ob/ob mice; OGTT on day 6, SC 10 mg/kg on day 5): 87 % of vehicle control
Mean Glucose AUC (% of vehicle control) (ob/ob mice; OGTT on day 6, SC 10 mg/kg on day 6): 67** % of vehicle control
SC half-life [3]: 20 h
IV half-life ([3]; listed as Ab-L1-FGF21ΔH-D790): 17 h and 19 h
SC bioavailability ([3]; listed as Ab-L1-FGF21ΔH-D790): 55% and 70%
IV AUC [3, 5]: 176 µg·h/mL
IV T½ [3, 5]: 19 h
